# Test results taken from paper PMC6451091.
# The list shows a part of the results. For part of these data: At the low end of the ranking, values are background and their order means little. For part of these data: Measured with an extract: partners may take part in the binding.
# Assays:
# Details in all cases: 20 mM HEPES pH 7.9, 100 mM NaCl, 1 mM DTT, 0.2 mg/mL BSA, 0.02% Triton X-100, 2% milk, 0.4 mg/mL salmon testes DNA; 1 h; temperature not stated; high values mean tight binding; double strand, one strand shown; sequences stand for … in GCCTAGCAC…GTGCTAGGTCTTGATTCGCTTGACGCTGCTG
# PU.1 (IVT) = PU.1 (IVT) (UniProt P17947); test: protein-binding microarray (PBM)
# [1] = target: PU.1 (endogenous, THP-1 nuclear extract) (UniProt P17947); test: nuclear extract protein-binding microarray (nextPBM)
# [2] = target: T1, FLI1 (endogenous, THP-1 nuclear extract) (UniProt Q01543); test: as above
# T1 sequence: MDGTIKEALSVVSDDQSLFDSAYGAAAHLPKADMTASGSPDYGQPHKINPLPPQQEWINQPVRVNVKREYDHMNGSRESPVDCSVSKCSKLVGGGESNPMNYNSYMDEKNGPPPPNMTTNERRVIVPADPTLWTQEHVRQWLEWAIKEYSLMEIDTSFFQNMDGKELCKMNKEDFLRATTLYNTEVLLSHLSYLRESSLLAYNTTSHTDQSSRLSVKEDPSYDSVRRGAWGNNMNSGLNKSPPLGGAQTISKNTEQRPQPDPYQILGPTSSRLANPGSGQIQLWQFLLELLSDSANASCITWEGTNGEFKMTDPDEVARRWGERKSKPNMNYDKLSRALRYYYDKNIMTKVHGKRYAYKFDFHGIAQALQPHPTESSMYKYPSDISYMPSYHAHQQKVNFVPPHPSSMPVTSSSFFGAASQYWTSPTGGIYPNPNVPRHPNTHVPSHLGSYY
Sequence,binding signal (PU.1 (IVT)),binding signal [1],binding signal [2]
TAAAAGAGGAAGTAGGAATA,8.36 z-score,7.26 z-score,4.1 z-score
GAAAACTGGAAGTCCCATAG,1.91 z-score,1.92 z-score,1.73 z-score
CTTATGGGGAAGTGCTCTAT,5.17 z-score,5.22 z-score,1.79 z-score
ACAAAAAGGACCTGTGCCCC,-0.688 z-score,-0.185 z-score,-0.839 z-score
AAATGGAGGAAGTGGCTATA,4.08 z-score,4.29 z-score,2.59 z-score
TAAAGCAGGAAGTGAGAATG,3.79 z-score,4.46 z-score,4.16 z-score
CTTGTGAGGAAGTGACTAGC,3.66 z-score,3.69 z-score,2.09 z-score
GCAGAGAGGAAGTGGGAGGG,3.59 z-score,4.34 z-score,2.73 z-score
CAAATGAGGAACTGATTCGG,6.43 z-score,6.6 z-score,2.03 z-score
GAAATGGGGAAGTGAGACAG,6.75 z-score,6.77 z-score,3.11 z-score
CGAAAGGAGAAGTGCTAAAC,4.02 z-score,4.63 z-score,0.966 z-score
CAAAAAGGGAACTGGATGCT,4.68 z-score,4.75 z-score,1.52 z-score
AAAAACAGGAAGTCACCTCA,7.82 z-score,7.15 z-score,5.21 z-score
TAAATGAGGAACTGATGCGG,6.09 z-score,6.21 z-score,1.29 z-score
GAATTAGGGAAGTGAACAAT,5.84 z-score,6.48 z-score,2.23 z-score
CTATTGAGGAACTGCCTCTG,2.97 z-score,3.07 z-score,0.785 z-score
AATAAGAGGAAATGAATGCA,3.07 z-score,3.14 z-score,2.23 z-score
AGAGAGAGGAAGTGGGATGG,4.41 z-score,4.45 z-score,2.96 z-score
GAAAAAAGGAACTGGCTAGA,4.04 z-score,3.89 z-score,1.42 z-score

Sequence,binding signal (PU.1 (IVT)),binding signal [1],binding signal [2]
ATAAAGAGGAACTGGCAGAT,5.09 z-score,5.76 z-score,1.71 z-score
GTGAAGAGGAAGTTTTCCTT,5.34 z-score,4.46 z-score,2.82 z-score
AAAAAGAGGAAGTGGGGGAG,8.59 z-score,7.6 z-score,4.12 z-score
GAAAAGGGGAAGTCAATGTT,7.87 z-score,7.55 z-score,3.61 z-score
CATAAAAGGAAGTGTGTCCT,3.21 z-score,3 z-score,2.21 z-score
AAAAAAAGGTACTGGCTAGA,0.305 z-score,0.133 z-score,-0.319 z-score
TAAGAGAGGAAGTGTAGCCT,3.79 z-score,3.77 z-score,2.49 z-score
GAAATGGGGAAGTGGCCAGG,6.49 z-score,6.89 z-score,2.68 z-score
GAAAACAGGAAGTGACTGTT,8.08 z-score,7.33 z-score,5.83 z-score
AAAAAAAGGAAGTGATAGCC,6.5 z-score,6.46 z-score,3.06 z-score
AGGAAGAGGAACTGTCTATG,4.07 z-score,4.31 z-score,2.54 z-score
AAAAAAAGGAAGTGCCTTCA,6.58 z-score,6.76 z-score,3.15 z-score
TTGAGAGGGAAGTGCACTCT,2.92 z-score,2.75 z-score,1.09 z-score
AAAAAGAGGAACTTGGGAAA,7.58 z-score,7.2 z-score,3.35 z-score
TTAAAGAGGAACTGCACGCC,4.21 z-score,4.9 z-score,1.43 z-score
AAAAAAAGGAACTGCCTAGA,4.37 z-score,4.14 z-score,1.42 z-score
AAAAAAAGGAAGTCTATCCC,6.05 z-score,5.43 z-score,2.4 z-score
TGTGGGAGGAAGTGCAAAAA,3.55 z-score,3.14 z-score,2.43 z-score
TAAAGGAGGAACTACTGTGA,4.75 z-score,4.46 z-score,1.16 z-score

Sequence,binding signal (PU.1 (IVT)),binding signal [1],binding signal [2]
GGAAAGAGGAAGTGCAGTCC,8.02 z-score,7.27 z-score,4.42 z-score
GAAAACAGGAAGTCCCAGAG,7.04 z-score,7.07 z-score,4.35 z-score
GATAACAGGAAGTCCCATAG,4.86 z-score,5.56 z-score,4.08 z-score
CAAGAAGGGAAGTGGATGCT,3.18 z-score,3.23 z-score,1.66 z-score
CAAAAGAGGAAGCCGAGGTG,4.84 z-score,5.85 z-score,2.46 z-score
AAAGGGGGGAAGTGGTTACA,3.41 z-score,3.21 z-score,1.9 z-score
TTAAACAGGAAGTAGTAACC,6.11 z-score,6.59 z-score,5.44 z-score
GGAAAAAGGAAGTGAAAAAA,5.95 z-score,5.97 z-score,3.07 z-score
GAAATGGGGAAGTGACTAAA,7.2 z-score,7.11 z-score,3.17 z-score
GGAAAGAGGAAGTCAAGTCC,7.77 z-score,7.25 z-score,3.69 z-score
TTAAGAAGGAAGTGGGTTTT,3.56 z-score,3.23 z-score,2.33 z-score
GAAAAGGGGAAGTGTGCTAC,7.48 z-score,6.93 z-score,3.44 z-score
AGAAAGAGGAAGTGAAGCTA,8.64 z-score,7.27 z-score,4.46 z-score
AAAAAGAGGAACTGGCTAGA,7.31 z-score,7.1 z-score,2.76 z-score
GAAAATGGGAAGTGACCGCA,5.62 z-score,6.03 z-score,2.02 z-score
AAAATAAGGAAGTGTAAGTC,6.51 z-score,6.73 z-score,2.45 z-score
AAAAAGAGGAAGGGACCCAA,5.29 z-score,6.25 z-score,2.26 z-score
AGGGAAGGGAAGTGGCTGTT,2.31 z-score,2.95 z-score,1.54 z-score
GGAAACAGGAAGTCCCATAG,6.35 z-score,6.83 z-score,5 z-score
